{"source": "paper PMC4336329", "about": "(PLoS ONE, 2015)", "note": "Out of some 310,000 compounds screened, about 2,200 (0.71%) showed an effect of 50% or more. The effect is printed as a negative number. This is one part of the list.", "data": [{"molecular_target": "human ether-à-go-go-related gene (hERG) potassium channel (human, UniProt Q12809)", "sequence (Q12809 whole entry, looked up)": "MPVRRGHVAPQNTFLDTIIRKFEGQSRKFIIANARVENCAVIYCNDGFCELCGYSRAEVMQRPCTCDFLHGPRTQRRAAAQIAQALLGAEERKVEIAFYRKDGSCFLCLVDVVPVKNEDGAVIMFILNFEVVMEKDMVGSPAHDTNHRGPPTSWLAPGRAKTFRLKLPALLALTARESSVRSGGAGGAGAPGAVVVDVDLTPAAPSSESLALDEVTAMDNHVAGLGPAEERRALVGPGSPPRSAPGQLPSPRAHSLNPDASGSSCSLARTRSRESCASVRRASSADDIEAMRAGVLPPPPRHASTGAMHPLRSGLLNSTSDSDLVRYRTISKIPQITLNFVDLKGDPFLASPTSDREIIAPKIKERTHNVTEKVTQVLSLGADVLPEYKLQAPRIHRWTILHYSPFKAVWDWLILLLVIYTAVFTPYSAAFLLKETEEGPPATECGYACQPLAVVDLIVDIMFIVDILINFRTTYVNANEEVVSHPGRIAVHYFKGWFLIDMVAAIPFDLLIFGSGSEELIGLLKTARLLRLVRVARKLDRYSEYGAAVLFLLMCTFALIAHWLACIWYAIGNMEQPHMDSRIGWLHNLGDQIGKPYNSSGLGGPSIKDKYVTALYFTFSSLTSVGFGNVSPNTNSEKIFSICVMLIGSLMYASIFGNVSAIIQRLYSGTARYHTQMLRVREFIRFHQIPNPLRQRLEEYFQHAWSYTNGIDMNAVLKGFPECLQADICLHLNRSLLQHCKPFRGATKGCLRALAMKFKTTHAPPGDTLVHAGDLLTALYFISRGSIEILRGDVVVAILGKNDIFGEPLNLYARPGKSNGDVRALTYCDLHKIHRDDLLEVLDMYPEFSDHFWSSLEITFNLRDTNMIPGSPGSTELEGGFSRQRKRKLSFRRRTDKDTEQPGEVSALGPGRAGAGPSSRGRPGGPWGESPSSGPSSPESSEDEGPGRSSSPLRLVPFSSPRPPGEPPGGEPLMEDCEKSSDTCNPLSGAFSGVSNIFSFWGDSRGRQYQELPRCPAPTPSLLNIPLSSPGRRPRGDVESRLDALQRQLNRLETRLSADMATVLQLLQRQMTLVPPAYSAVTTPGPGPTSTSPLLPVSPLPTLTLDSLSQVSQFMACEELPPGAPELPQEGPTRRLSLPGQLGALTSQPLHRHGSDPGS", "assay": "primary screen, population patch clamp on CHO cells stably expressing hERG", "units": {"hERG current change (%, negative = inhibition) at 1uM": "%"}, "values": [{"compound": "COc1ccc(S(=O)(=O)N(CC(C)C)CC(C)C)c2cccnc12", "hERG current change (%, negative = inhibition) at 1uM": -12.8}, {"compound": "CC1CN(C(=O)CCNC(=O)c2ccccc2Cl)CC(C)O1", "note": "(centres unmarked)", "hERG current change (%, negative = inhibition) at 1uM": 6.75}, {"compound": "CCOC(=O)c1c(CN2CCCCC2C)oc2ccc(OC)cc12.Cl", "note": "(centres unmarked)", "hERG current change (%, negative = inhibition) at 1uM": -31.1}, {"compound": "O=C(Nc1ccc(Cl)cc1)OCc1cn(-c2ccc(Cl)cc2)nn1", "hERG current change (%, negative = inhibition) at 1uM": 0.63}, {"compound": "CN1CCC(=O)N([C@H](COc2ccccc2)Cc2ccccc2)CC1", "hERG current change (%, negative = inhibition) at 1uM": -8.2}, {"compound": "CC(=O)Nc1ccc(NC(=O)CSc2nnc(NC(=O)C3CC(=O)N(c4ccccc4)C3)s2)cc1", "note": "(centres unmarked)", "hERG current change (%, negative = inhibition) at 1uM": 5.54}, {"compound": "Cc1ccc(C)c(N2CCN(C(=O)CCCCn3c(=O)[nH]c4ccccc4c3=O)CC2)c1", "hERG current change (%, negative = inhibition) at 1uM": 6.84}, {"compound": "CCn1nc(Cc2cccc3ccccc23)c(C#N)c1N", "hERG current change (%, negative = inhibition) at 1uM": -8.03}, {"compound": "CC(=O)c1cc(C#N)c(N2CCCC2)nc1C", "hERG current change (%, negative = inhibition) at 1uM": 15.4}, {"compound": "Nc1c(Cl)ncnc1N/N=C/c1ccncc1", "hERG current change (%, negative = inhibition) at 1uM": 16.5}, {"compound": "O=C(Cc1c(Cl)cccc1Cl)Nc1ccc(S(=O)(=O)Nc2ncccn2)cc1", "hERG current change (%, negative = inhibition) at 1uM": 12.8}, {"compound": "COc1ccc(N(Cc2cc3cc(OC)ccc3[nH]c2=O)C(=O)c2cccnc2)cc1", "hERG current change (%, negative = inhibition) at 1uM": 7.07}, {"compound": "COCCn1c(C)cc(C(=O)CSc2nc3ccccc3o2)c1C", "hERG current change (%, negative = inhibition) at 1uM": 4.79}, {"compound": "O=C(NC1CCCCC1)C1CCN(c2nnnn2-c2ccccc2)CC1", "hERG current change (%, negative = inhibition) at 1uM": 3.39}, {"compound": "COc1cc(OC)c(C(=O)CCCN2CCCC2)c(OC)c1.Cl", "hERG current change (%, negative = inhibition) at 1uM": 4.46}, {"compound": "COc1ccc(CNC(=O)c2ccc[nH]2)cc1Cl", "hERG current change (%, negative = inhibition) at 1uM": 11.9}, {"compound": "COc1ccccc1N1CCN(C(=O)c2ccncc2)CC1", "hERG current change (%, negative = inhibition) at 1uM": 3.51}, {"compound": "Cc1ccc(-c2c(C(=O)N/N=C/c3ccc(C)o3)nnn2-c2nonc2N)cc1", "hERG current change (%, negative = inhibition) at 1uM": 17.9}, {"compound": "Cn1cnnc1SCC(=O)Nc1sc2c(c1C(N)=O)CCC2", "hERG current change (%, negative = inhibition) at 1uM": 13.3}, {"compound": "Cc1ccc(S(=O)(=O)Nc2ccc(O)c3ccccc23)c(C)c1", "hERG current change (%, negative = inhibition) at 1uM": 10.5}, {"compound": "COc1ccc(Cc2nc3ccccc3n2CC(=O)N/N=C/c2ccc(C)cc2O)cc1OC", "hERG current change (%, negative = inhibition) at 1uM": 11.4}, {"compound": "NC(=O)CCC(NS(=O)(=O)c1ccc(Cl)cc1)C(=O)NCc1ccc(Cl)cc1", "note": "(centres unmarked)", "hERG current change (%, negative = inhibition) at 1uM": -3.5}, {"compound": "COC(=O)/C(C#N)=C1/SC=C(C)N1c1ccccc1", "hERG current change (%, negative = inhibition) at 1uM": 1.4}, {"compound": "CCCOC(=O)C(C)n1cnc2scc(-c3ccc(C)cc3)c2c1=O", "note": "(centres unmarked)", "hERG current change (%, negative = inhibition) at 1uM": 12.5}, {"compound": "CCOC(=O)N1CCC(NC(=O)Cn2cccc2C(=O)c2ccccc2C)CC1", "hERG current change (%, negative = inhibition) at 1uM": 10.2}, {"compound": "O=C(c1ccc(Cl)cc1)C(Cn1cncn1)C(Sc1ccccc1)c1ccccc1", "note": "(centres unmarked)", "hERG current change (%, negative = inhibition) at 1uM": 9.35}, {"compound": "COc1cccc(C2c3[nH]c4ccccc4c3C[C@H]3C(=O)N(C)CC(=O)N23)c1", "note": "(some centres unmarked)", "hERG current change (%, negative = inhibition) at 1uM": -1.14}, {"compound": "COC(=O)c1ccccc1NC(=O)C1CCCN(S(=O)(=O)c2ccccc2)C1", "note": "(centres unmarked)", "hERG current change (%, negative = inhibition) at 1uM": -1.53}, {"compound": "COc1ccc(COCCN2CCN(S(=O)(=O)c3ccccc3)CCC2=O)cc1", "hERG current change (%, negative = inhibition) at 1uM": 5.1}, {"compound": "O=C(CSc1nnc(-c2cccnc2)n1CCc1ccccc1)NCc1ccccc1", "hERG current change (%, negative = inhibition) at 1uM": -8.23}, {"compound": "CCCCC(=O)c1ccc(O)cc1", "hERG current change (%, negative = inhibition) at 1uM": -11.4}, {"compound": "O=C(Nc1nc(-c2ccc3c(c2)OCCO3)cs1)c1ccc(S(=O)(=O)N2CCCCC2)cc1", "hERG current change (%, negative = inhibition) at 1uM": 20.9}, {"compound": "CCOC(=O)CNC(=O)CSc1nnc(COc2ccc(Cl)cc2)n1CC", "hERG current change (%, negative = inhibition) at 1uM": 10.8}, {"compound": "Cc1ccc(OCC(=O)OCC(=O)c2c(N)n(C)c(=O)n(C)c2=O)cc1C", "hERG current change (%, negative = inhibition) at 1uM": -2.96}, {"compound": "Cc1occc1-c1nnc(SCC(=O)c2c[nH]c3ccccc23)n1C", "hERG current change (%, negative = inhibition) at 1uM": 12.1}, {"compound": "CCOc1ccc(C(=O)N2CCCN(C(=O)c3ccc(OCC)cc3)CC2)cc1", "hERG current change (%, negative = inhibition) at 1uM": -69.3}, {"compound": "CCc1nnc(NC(=O)CCC(=O)N2CCC(Cc3ccccc3)CC2)s1", "hERG current change (%, negative = inhibition) at 1uM": -12.3}, {"compound": "COc1ccc(NC(=O)Nc2c(SC)nsc2SC)cc1", "hERG current change (%, negative = inhibition) at 1uM": 14.6}, {"compound": "CCN(C(=O)COC(=O)Cc1ccc(F)cc1)c1c(N)n(Cc2ccccc2)c(=O)[nH]c1=O", "hERG current change (%, negative = inhibition) at 1uM": 4.1}, {"compound": "COc1ccccc1N1C(=O)C(=O)N(C)C1=O", "hERG current change (%, negative = inhibition) at 1uM": 17.2}, {"compound": "O=C(O)CNC(=S)N(Cc1ccccc1F)C1CCCCC1", "hERG current change (%, negative = inhibition) at 1uM": 8.71}, {"compound": "O=C(/C=C/c1cccc(Cl)c1)NCCc1ccccc1", "hERG current change (%, negative = inhibition) at 1uM": 6.8}, {"compound": "O=C(Nc1ccc(Cl)cc1C(F)(F)F)c1ccccc1", "hERG current change (%, negative = inhibition) at 1uM": 12}, {"compound": "Cc1cc(C)cc(N(CC(=O)NC2CCCC2)C(=O)CNC(=O)c2cccs2)c1", "hERG current change (%, negative = inhibition) at 1uM": 13.8}]}]}
